Source: the supplement of paper PMC4604168 (melanoma cell lines)
This is one part of the list. Most values come without repeats; read them as rough.
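Further: cell number obtained by counting DAPI-stained nuclei in high-throughput microscope images with image analysis software, screen run in 1,536-well plates.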

These compounds were tested on 501Mel (assay: cell count relative to DMSO control; melanoma cells; higher = more viable cells). Conditions: library dose: low library concentration; 72 h.
`Nc1ncn([C@H]2C[C@H](O)[C@@H](CO)O2)c(=O)n1` [decitabine] + C/C(O)=C(\C#N)C(=O)Nc1cc(Br)ccc1Br [LFM-A13] (first compound 0.1 µM, partner dose 2 µM) gave a cell count of 112%.
Work on `CCCCCCCCc1ccc(CCC(N)(CO)CO)cc1` [fingolimod] + C/C(O)=C(\C#N)C(=O)Nc1cc(Br)ccc1Br [LFM-A13] (first compound 2 µM, partner dose 2 µM) yielded a cell count of 89.9%.
Compound `CC[C@]1(O)C[C@H]2CN(CCc3c([nH]c4ccccc34)[C@@](C(=O)OC)(c3cc4c(cc3OC)N(C=O)[C@H]3[C@@](O)(C(=O)OC)[C@H](OC(C)=O)[C@]5(CC)C=CCN6CC[C@]43[C@@H]65)C2)C1` [vincristine] + Cc1cc(SCc2sc(-c3ccc(C(F)(F)F)c(F)c3)nc2C)ccc1OCC(=O)O [GW0742] (first compound 0.0001 µM, partner dose 2 µM) has a cell count of 97.1%.
In the case of `Cc1ccc(Nc2nccc(N(C)c3ccc4c(C)n(C)nc4c3)n2)cc1S(N)(=O)=O` [Pazopanib] + C/C(O)=C(\C#N)C(=O)Nc1cc(Br)ccc1Br [LFM-A13] (first compound 0.4 µM, partner dose 2 µM), the cell count was 108%.
For `COc1cc([C@@H]2c3cc4c(cc3[C@@H](O[C@@H]3O[C@@H]5CO[C@@H](C)O[C@H]5[C@H](O)[C@H]3O)[C@H]3COC(=O)[C@H]23)OCO4)cc(OC)c1O` [etoposide] + Cc1cc(SCc2sc(-c3ccc(C(F)(F)F)c(F)c3)nc2C)ccc1OCC(=O)O [GW0742] (first compound 0.02 µM, partner dose 2 µM), the cell count was 115%.
`Cc1cc(Nc2cc(N3CCN(C)CC3)nc(/C=C/c3ccccc3)n2)n[nH]1` + Cc1cc(SCc2sc(-c3ccc(C(F)(F)F)c(F)c3)nc2C)ccc1OCC(=O)O [GW0742] (first compound 0.04 µM, partner dose 2 µM) was tested, and the cell count was 87.3%.
For `Cn1cnc2c(F)c(Nc3ccc(Br)cc3Cl)c(C(=O)NOCCO)cc21` [selumetinib] + C/C(O)=C(\C#N)C(=O)Nc1cc(Br)ccc1Br [LFM-A13] (first compound 0.015 µM, partner dose 2 µM), the cell count was 45.6%.
`NC(=O)c1ccc(N(C(N)=O)c2c(F)cccc2F)nc1-c1ccc(F)cc1F` + C/C(O)=C(\C#N)C(=O)Nc1cc(Br)ccc1Br [LFM-A13] (first compound 0.4 µM, partner dose 2 µM) showed a cell count of 96.3%.
Work on `O=C(O)[C@@H]1[O][Sb](=[O])([O][Sb]2(=[O])[O][C@H]([C@H](O)CO)[C@H](O)[C@H](C(=O)O)[O]2)[O][C@H]([C@H](O)CO)[C@@H]1O` (some centres undefined) [stibogluconate] + O=C(Oc1ccc([N+](=O)[O-])cc1)N1CCC(C(O)(c2ccc3c(c2)OCO3)c2ccc3c(c2)OCO3)CC1 [JZL184] (first compound 2 µM, partner dose 1 µM) yielded a cell count of 63.1%.
Compound `Cc1ccc(Nc2nccc(N(C)c3ccc4c(C)n(C)nc4c3)n2)cc1S(N)(=O)=O` [Pazopanib] + O=C(Oc1ccc([N+](=O)[O-])cc1)N1CCC(C(O)(c2ccc3c(c2)OCO3)c2ccc3c(c2)OCO3)CC1 [JZL184] (first compound 0.4 µM, partner dose 1 µM) has a cell count of 99.9%.
Work on `CNC(=O)c1cc(Oc2ccc(NC(=O)Nc3ccc(Cl)c(C(F)(F)F)c3)cc2)ccn1` [sorafenib] + O=C(Oc1ccc([N+](=O)[O-])cc1)N1CCC(C(O)(c2ccc3c(c2)OCO3)c2ccc3c(c2)OCO3)CC1 [JZL184] (first compound 0.4 µM, partner dose 1 µM) yielded a cell count of 83.8%.
Work on `CNC(=O)c1cc(Oc2ccc(NC(=O)Nc3ccc(Cl)c(C(F)(F)F)c3)cc2)ccn1` [sorafenib] + C/C(O)=C(\C#N)C(=O)Nc1cc(Br)ccc1Br [LFM-A13] (first compound 0.4 µM, partner dose 2 µM) yielded a cell count of 85.9%.
With `CCCS(=O)(=O)Nc1ccc(F)c(C(=O)c2c[nH]c3ncc(Cl)cc23)c1F` + O=C(Oc1ccc([N+](=O)[O-])cc1)N1CCC(C(O)(c2ccc3c(c2)OCO3)c2ccc3c(c2)OCO3)CC1 [JZL184] (first compound 0.08 µM, partner dose 1 µM) the cell count was 92.4%.
In the case of `CCCCCCCCc1ccc(CCC(N)(CO)CO)cc1` [fingolimod] + O=C(Oc1ccc([N+](=O)[O-])cc1)N1CCC(C(O)(c2ccc3c(c2)OCO3)c2ccc3c(c2)OCO3)CC1 [JZL184] (first compound 2 µM, partner dose 1 µM), the cell count was 45.6%.
